Measurements as given in patent publication US12599649B2, “Bioactive polypeptides for improvements in plant protection, growth and productivity” (priority 2017, dated 2026).

Key:
Format in all cases: in vivo
soybean [1] = assay: Foliar RHPP on soybean, nodulation and biomass (Example 23)
Description: Effective nodulation of soybean roots result in higher yields and higher quality seed production, protein and oil per seed or acre basis. This could be due to increased nitrogen fixation since nodulale formation increases nitrogen fixation. To determine whether root hair promoting bioactive priming polypeptide, RHPP (SEQ ID NO: 600) could modulate root biomass and nodulation and thereby improve nitrogen fixation, soybean plants (hybrid Morsoy 38×52 and Beck's hybrid 297R4) were treated with foliar application of RHPP (300 nM) at the R1-R2 stage of development.
RHPP bioactive priming polypeptide (SEQ ID NO: 600, originally derived from Glycine max) was applied as foliar treatment to 4-week-old hybrid soybean (Morsoy variety) with 0.1% (v/v) non-ionic surfactant ([…] SURFACE™) using a spray bottle and delivering approximately 1.25 ml/plant. The experiment was conducted using a total of 8 plants per trial per treatment group. […] Growth parameters of nodule counts, root biomass and total biomass per plant were measured at 15 days post the foliar application and compared between the foliar treatments consisting of […] SURFACE surfactant (0.1% v/v) as a control and the RHPP polypeptide (300 nM) containing the […] SURFACE surfactant (0.1% v/v). Average growth parameters as described were normalized to the control plants that received the surfactant alone treatment (Table 38).

soybean [2] = assay: RHPP with N-RAGE MAX fertilizer on soybean, yield (Example 24)
Excerpt: The Gm.RHPP bioactive priming polypeptide (SEQ ID NO: 600) was applied as a foliar application with a liquid foliar fertilizer, N-RAGE MAX (21-1-3 N—P-K), to two soybean varieties (AG3536 and AG3832).

soybean [3] = assay: Bt.4Q7Flg22 or Ec.Flg22 with RHPP on soybean, yield (Example 28)
Excerpt: The bioactive priming polypeptides, Bt.4Q7Flg22 and Ec.Flg22, were combined with RHPP and accessed for yield benefits in soybean.
Average yield (harvested in September) in bushels per acre (Bu/Ac) is reported for soybean grown in 7 separate locations and reported individually for both soybean varieties and as a combined average yield (Table 45).

soybean [4] = assay: Foliar Gm.RHPP on R1 soybean, pod number (Example 40); settings: 300 nM, 31 days after first foliar treatment
Description: Plants were then placed under a long day conditions consisting of 16/8 light/day cycle and temperature 21-26° C. to promote early flowering and speed up progression to the reproductive (R) growth stage. When the soybean plants had reached the R1 stage of development a foliar application containing the Gm.RHPP (SEQ ID NO: 600) polypeptide at a final concentration of 300 nM and a non-ionic surfactant of 0.10% (NIS90:10; Precision Laboratories, LLC) was applied to soybean. Soybean plants were provided with the Gm.RHPP formulation and a non-ionic surfactant only control. Both the Gm.RHPP and the non-ionic surfactant control treatment were applied to 18 plants per treatment. Six equidistant sprays were provided approximatey 15 cm above per each plant for complete coverage of foliage. After treatment application, the R1 soybean plants were returned to the control environmental growth room. […] Soybean pods of more than 1 mm in length were counted on the plants after 31 days from the first foliar spray treatment applications. […] A p value (p<0.05 for significance) was calculated from a paired T-test comparison between pod number from plants that received the Gm.RHPP and the non-ionic surfactant control treatment applications.

[5] = system: jalapeno peppers (Capsicum); assay: Foliar Bt.4Q7Flg22 and Gm.RHPP on jalapeno pepper (Example 41)
Description: Small-scale plots were designed to simulate commercial growing conditions for jalapeno peppers. Peppers were grown for 12-weeks in a controlled growth room and then transplanted outside in 2 raised beds covered with black plastic mulch that had good water-holding characteristics and in soil having a pH of 5.8-6.6. Jalapeno pepper plants were spaced 14-16 inches (38 cm) apart with 16-24 inches (50 cm) between plants containing approximately 25 plants per row bed. Plants were grown using drip irrigation and fertilizer applied following grower guidelines throughout the growing season to provide optimum conditions for plant growth. The raised bed plots were designed to simulate the planting densities used by commercial growers that generally plant approximately plants per acre (5,000-6,500 plants per acre or 12,355-16,062 plants per hectare) in double rows 35.6-45.7 cm apart with the beds spaced 5.0-6.5 feet (1.52-1.98 meters) apart from their centers (Orzolek et al., “Agricultural Alternatives: Pepper Production.” University Park: Penn State Extension, 2010).
Plants were treated in replicates of 6 plants, with three replicates per treatment. Replicates with average yield per plant 50% above or 50% below the median yield for the trial were excluded as outliers.
The number of peppers and the above ground biomass per plant were normalized to the yield and to the biomass of the pepper control plants that were treated with surfactant alone (Table 62).

[6] = 300 nM foliar, 15 days post application
[7] = soybean Morsoy, 300 nM + 0.1% v/v ALLIGARE SURFACE, 15 days post foliar application
[8] = soybean Morsoy, 300 nM, 15 days post foliar application
[9] = 1 Fl. oz/Ac (300 nM) with N-RAGE MAX fertilizer, R2, variety AG3536
[10] = both soybean varieties, foliar at R2, use rate Fl. oz/Ac: N-RAGE MAX 128, RHPP 4.0
[11] = both soybean varieties, use rate 0.33 Fl. oz/Ac
[12] = jalapeno pepper, foliar at early bloom, 3.2 fl oz/Ac

**Q.** What does the source list for “RHPP: root hair promoting polypeptide derived from Glycine max (GGIRAAPTGNER; Glycine max)”?
**A.** increase in root biomass normalized to control (soybean [1]; [6]): more than 20%; increase in total biomass normalized to control (soybean [1]; [6]): 8%; number of nodules on roots vs surfactant control (soybean [1]; [6]): approximately two times the number of nodules; Average nodule count per plant (soybean [1]; [7]): 15.13; Root biomass (soybean [1]; [7]): 2.13 g; Total biomass (soybean [1]; [7]): 46.24 g; Average nodule count per plant, RHPP treatment normalized as a percentage of the surfactant control (soybean [1]; [8]): 170.42%; Root biomass, RHPP treatment normalized as a percentage of the surfactant control (soybean [1]; [8]): 120.57%; Total biomass, RHPP treatment normalized as a percentage of the surfactant control (soybean [1]; [8]): 108.44%; yield advantage compared to control treatment (soybean [2]; [9]): 1.9 Bu/Ac; yield increase compared to fertilizer alone (soybean [2]; [9]): 1.4 Bu/Ac; Average Bu/Ac Change compared to Control Variety 1 and 2 (soybean [2]; [10]): +0.9 Bu/Ac; Average Total Yield Bu/Ac Variety 1 and 2 (soybean [2]; [10]): 63.23 Bu/Ac; Average Total Yield Bu/Ac Variety 1 (soybean [2]; soybean variety 1 (AG3536), foliar at R2, 5 US Midwest locations, use rate Fl. oz/Ac: N-RAGE MAX 128, RHPP 4.0): 65.42 Bu/Ac; Average Total Yield Bu/Ac Variety 2 (soybean [2]; soybean variety 2 (AG3832), foliar at R2, 5 US Midwest locations, use rate Fl. oz/Ac: N-RAGE MAX 128, RHPP 4.0): 61.04 Bu/Ac; Average Bu/Ac Increase compared to Control Variety 1 and 2 (soybean [3]; [11]): +0.35 Bu/Ac; Average Total Yield Bu/Ac Variety 1 and 2 (soybean [3]; [11]): 60.92 Bu/Ac; yield increase over control plants (soybean [3]; foliar 4.0 Fl. oz/Ac, R2, 7 locations): 1.26 Bu/Ac; Average Total Yield Bu/Ac Variety 1 (soybean [3]; soybean variety 1 (AG2836), foliar at R2, 7 locations, use rate 0.33 Fl. oz/Ac): 59.15 Bu/Ac; Average Total Yield Bu/Ac Variety 2 (soybean [3]; soybean variety 2 (AG3536), foliar at R2, 7 locations, use rate 0.33 Fl. oz/Ac): 62.44 Bu/Ac; pod count vs non-ionic surfactant control (soybean [4]): approximately doubled pod count; increase in weight of peppers per plant vs surfactant only control ([5]; 3.2 Fl. oz/Ac): 27%; Average Fruit Weight (grams) per Plant [5, 12]: 156.6 grams; Percentage Change in Fruit Weight Compared to Surfactant Control [5, 12]: +27%
